Measured values taken from the supplement of paper PMC11417369.
± gives the standard deviation of the averaged measurements. This is one part of the list.

test system: PfAP2-G AP2 domain (GST-tagged); assay: gcPBM binding intensity (ln(normalized median fluorescence intensity)); higher = stronger DNA binding
In short: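 Alexa488 anti-GST antibody, scanned at 488 nm, detected GST-tagged P. falciparum DNA-binding domains that had been expressed in E. coli and incubated for 1 h on an Agilent 4 × 180k array. The array carried primer-extended double-stranded 36-bp intergenic genomic probes and negative controls. Binding intensity is the highest Masliner-normalised natural-log median intensity across replicate spots of either orientation of each probe.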

Sequence	gcPBM binding intensity (ln)
AGAAAAGTTTAATACAGTACATAAACAAAGTATAGG [XGTACX_site2386]	10.9 ± 0.45
GTATATTTATAGCCTTTATTATATTTAATATTATTA [TGCATGCA_negctrl_site26]	9.805 ± 0.049
TATAATATTATATATAAACACACATACACATGTAAA [CACACA_site8631]	10.2 ± 0.14
TATATATAACTTTATTGTACAAAATATTATGTATTC [XGTACX_site981]	10.8 ± 0.39
TTATATTATTTTTAATGTACTTTTTATGAATACAAA [XGTACX_site689]	11.3 ± 0.88
TATACAACTTTATGAAGTACAAAAAGTTCTATATAT [XGTACX_site3866]	11.1 ± 0.79
TTGTTTTATTATTCGATGCACTACAGAAATATATTC	10.3 ± 0.4
AACTATATCATTTATTTTATTTTTTAAATACATTTA [CACACA_negctrl_site183]	9.71 ± 0.13
ATAATTATATATTTATGTACGCATAAATATTTATAT [XGTACX_site5765]	11.5 ± 1.2
TATTTATTGTGATACTACTATTATTTTATGATTAAA [CACACA_negctrl_site284]	10.5 ± 0.4
ACCCAATTTTAAAATGAACACACATGTTTTTCTTAC [CACACA_site8246]	10.19 ± 0.021
AACATACATAGACACACACACACACGCACACGCACA [CACACA_site6373]	10.3 ± 0.17
GAAAATACGTTTAATCGTACATATATATAATATATA [XGTACX_site4243]	11.1 ± 0.88
TATTTACCCTCATGTTGTACTTTTCATTCATTTTAT [XGTACX_site7794]	11.4 ± 0.75
ACAAGTTTTTTTTTATCACACACAAAAAAAAAAATA [CACACA_site8377]	10.3 ± 0.41
ATTAATTATAATGTATGTACATAACTTTTTTATATT [XGTACX_site5784]	11.2 ± 0.67
TTTATTATTTTTAGGAGTACACAAAATAAAACAAAT [XGTACX_site8841]	11.6 ± 1
TATAAAAATGTGCACACACACACATATTTATATTTA [CACACA_site6826]	10.4 ± 0.39
AACCTTTATATGTAAAGTACAAAAAAGAGTAAAAAA [XGTACX_site5506]	11 ± 0.62
TCTATAAAGGAATATACACACATATATAAATATGTA [CACACA_site6332]	9.85 ± 0.12
AAAAACAGAAATGTAACACACAAAAATTCTATTTAT [CACACA_site4026]	9.86 ± 0.057
TTTTGTTATAAATAATGTACATATTTATTTAAAATT [XGTACX_site6610]	11.2 ± 0.79
AAAATCATTCCAAAGACATGCATTTTGCAAATAAAA [TGCATGCA_site461]	9.69 ± 0.071

Sequence	gcPBM binding intensity (ln)
TATATTATATACCATTGTACATATAATATAGGTTCT [XGTACX_site7047]	10.8 ± 0.59
GAAACGATTTAATACACACACGTATTATAGATATAT [CACACA_site6666]	10.12 ± 0.078
TTTTTTTTTTTTTTGACACACATAATAAAATACAAA [CACACA_site3080]	10.2 ± 0.66
AATAAGCATATACAAACATGCATACATATAAATAAA [TGCATGCA_site338]	9.815 ± 0.064
AGCCACGTGGTATATACACACATAATCAAATAAAAT [CACACA_site9364]	10.2 ± 0.2
TATATATTTGTAACGGGTACGTAGGTGTATATTCCA [XGTACX_site6028]	11.1 ± 0.53
AAAAAAAAAAAATACACACACACATATATATATATA [CACACA_site731]	10.3 ± 0.9
TTTTTTTTTTTTTATTGTACTAAATTATAGAGGGGA [XGTACX_site2609]	10.9 ± 0.95
AAATATTTTAACGAGAGTACATAATAACAATTTATG [XGTACX_site3865]	11.3 ± 0.7
GAAAGAATAAAATTTACACACATATATAAATACATA [CACACA_site5273]	9.74 ± 0.11
TGAATAAATAGACACACACACATATATAAATATGTA [CACACA_site6159]	9.98 ± 0.24
ATAAAACAACACACTTGTACTAATTTTTTTTTTTTT [XGTACX_site8377]	11.1 ± 0.61
TATTGACAAAAAAAAAAAAGGTAAAAAAGAAAGAAA [GTGCAC_negctrl_site418]	10 ± 0.22
TTTTGTTTATGTGTGCATTATATTATATTTTTTATT [TGCATGCA_negctrl_site146]	10.1 ± 0.18
TATAAATAAATATACACACACACATATAAATATGTA [CACACA_site6504]	9.93 ± 0.028
TGTAAGAAATTGAGCGCACACATACATCTGTGGGAT [CACACA_site4945]	10.43 ± 0.042
TTATAATTTTAATGTGCACACAATTAAAATATTATA [CACACA_site5172]	10.6 ± 0.41
AAGTGGTTATAATCAACACACGTGGAATGTACTTTA [CACACA_site3700]	10.9 ± 0.75
AAGAAACCATAATATGCATGCACATATTAATAAATA [TGCATGCA_site693]	9.89 ± 0.18
AAAGAAAGGAATACGACACACAAAAAAAAAATATAT [CACACA_site1934]	10.2 ± 0.18
TAGTTGCACATGTATACACACAAAAAATATTTTATG [CACACA_site475]	10.6 ± 0.33
AATAAATATAGGTACACACACAAATATGTACATATC [CACACA_site6976]	11.7 ± 0.92
CCTCAATATTCACATACACACAATATCATCGAAGTA [CACACA_site1676]	10.1 ± 0.23

Sequence	gcPBM binding intensity (ln)
CTACATACAAGAATTAAACACACACTAATTATAAAT [CACACA_site8986]	10 ± 0.028
AATATAATTATATGTGGTACAGAAATAATATAAAAT [XGTACX_site2366]	11.4 ± 0.7
TTATAAAAGACAAAAGTGCATATATACATATGTATA	9.98 ± 0.16
TTCTTTTTTTTTCTGGGTACATATATTCCAATCACT [XGTACX_site4770]	11.3 ± 0.88
CCATCTTTTTTACGATGTACAAGTATAAGGTATACG [XGTACX_site2697]	10.9 ± 0.53
TATATATAATAAGAAGGTACACGTAAGTAATAATTT [XGTACX_site934]	11 ± 0.54
TTTATATGTTTTGTATTTTTAATAAATATTTTATTA [TGCATGCA_negctrl_site20]	9.84 ± 0.099
TATAACTTTTATAGGTGTACCCAATATTATATATAG [XGTACX_site7673]	11.4 ± 0.84
TGTAAAACCTCCTACACACACCAATTAACTATTCTA [CACACA_site7074]	9.875 ± 0.021
TATATATATATTATTAGTACTTATTTTTTTTCATAT [XGTACX_site1279]	11.2 ± 0.58
TTATATTATAGACACACACACAAAAAAAAAAAAAAA [CACACA_site3816]	9.97 ± 0.3
AAATAAATAAATTAACGTACATAATAACATTAATAT [XGTACX_site8567]	11.2 ± 0.79
ATATATATATATGTATGTACACATATTTTTTAACTT [XGTACX_site431]	11.5 ± 0.78
ATGTATATATATTTGTGTACATATTTAGGAAATAAA [XGTACX_site2904]	11.6 ± 1
AATTAAATTTATATGAATGTCAATTATATTGTTATA [XGTACX_negctrl_site261]	9.64 ± 0.16
ATTATCCATGCATTTACACACACACTAAAAAAAATT [CACACA_site7848]	10.3 ± 0.34
TTATAAAATGGGCAAACACACACAAAAAAAAGATAT [CACACA_site8476]	10.4 ± 0.21
AATAAATTACTATGTACACACATAAGAGTATAAATA [CACACA_site6940]	11.4 ± 0.91
AAAAAGTTACATGGTGGTACTCAAATAAAATATTCT [XGTACX_site5993]	11.3 ± 0.79
TTGAATTAAAAACATACATGCATATATATATATATA [TGCATGCA_site319]	9.84 ± 0.46
TTTTTTTTTTTTTGATGTACATAAATTAAGAATTAT [XGTACX_site7789]	11.3 ± 0.93
AATATATCTTTTTACGGCAACCATATTTTTCCCATT [CACACA_negctrl_site963]	10.21 ± 0.064
TATTAACAAAATATAGCACACATAAATATATATTTA [CACACA_site8005]	9.98 ± 0.071

Sequence	gcPBM binding intensity (ln)
TATTATGTTATATATTGTACATGTTTATTGAAACAA [XGTACX_site5605]	11.1 ± 0.59
TTTATATGTGAAAAAAGTACAAGGAAAAAATTAAAC [XGTACX_site7269]	11.5 ± 0.92
TTTTTTTTAGTATGAACACACATATATATTATAAAA [CACACA_site2935]	10.1 ± 0.25
ACGGAAAAAGAAAAGGTGCATATGGACACAATATAT	11.1 ± 0.67
TATTACATACAATATTGTACATATCATATTTTGAAT [XGTACX_site2191]	10.8 ± 0.4
TTATTTTAATATAAAATACACACTACTATTATAAAT [CACACA_site1470]	10.1 ± 0.11
TAATTATTAAAACATTGTACATTATTATAAACAATT [XGTACX_site4489]	10.8 ± 0.46
ATATATAAATATATTACACACTTTTTCTTTTTTTTT [CACACA_site7332]	9.54 ± 0.36
ATAGAAATATTATATTGTACGAACAGTTATTAACAA [XGTACX_site2137]	11.2 ± 0.68
ATTATTTGTTTAAATTCACACACGTATATATATTTA [CACACA_site3050]	10.3 ± 0.24
ACATGTAAATGGAAAAGTACTAATAACTTGTATTGG [XGTACX_site5181]	11.1 ± 0.45
AAACAGCATGGTATACCTATAAAATATATATACTAA [GTGCAC_negctrl_site39]	10.1 ± 0.18
TTTTCCATAAGAATTACACACAGAAAGGATAAGTAT [CACACA_site105]	10.2 ± 0.18
CTTATATTAATTATTACACACATATTTATAAATGCA [CACACA_site6501]	10.1 ± 0.37
TCTGAAACAAGAAAAAGTACACAAATTACAAAACTA [XGTACX_site7641]	11.5 ± 1
AAAAAAAATTCACACTGTACAAAAGCATAAATAAAC [XGTACX_site5408]	10.7 ± 0.37
GTATATAAATATATATATATATATATATCTATATTT [CACACA_negctrl_site871]	9.57 ± 0.028
GTATTTTTACAAATTTGTACATATATATGAATATAC [XGTACX_site6717]	11 ± 0.49
AAAGAAAAATTAACATGTACAAAAATTACTTGTTCA [XGTACX_site6725]	10.8 ± 0.43
TTTTGTAAAAAGAAAAATTAGAATATATCGTATATA [XGTACX_negctrl_site617]	9.615 ± 0.049
